# Experimental data as given in publication PMC4336329 (PLoS ONE, 2015).
# The whole screen tested about 310,000 compounds, of which about 14,000 (4.5%) showed an effect of 50% or more. Effects have a minus sign here. Some of the results follow.
# Molecular target: human ether-à-go-go-related gene (hERG) potassium channel (human, UniProt Q12809)
# Assay: primary screen, population patch clamp on CHO cells stably expressing hERG
# 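Further: peak tail current of the secondary pulse compared with the same well before compound.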
# Sequence of human ether-à-go-go-related gene (hERG) potassium channel (Q12809 whole entry, looked up): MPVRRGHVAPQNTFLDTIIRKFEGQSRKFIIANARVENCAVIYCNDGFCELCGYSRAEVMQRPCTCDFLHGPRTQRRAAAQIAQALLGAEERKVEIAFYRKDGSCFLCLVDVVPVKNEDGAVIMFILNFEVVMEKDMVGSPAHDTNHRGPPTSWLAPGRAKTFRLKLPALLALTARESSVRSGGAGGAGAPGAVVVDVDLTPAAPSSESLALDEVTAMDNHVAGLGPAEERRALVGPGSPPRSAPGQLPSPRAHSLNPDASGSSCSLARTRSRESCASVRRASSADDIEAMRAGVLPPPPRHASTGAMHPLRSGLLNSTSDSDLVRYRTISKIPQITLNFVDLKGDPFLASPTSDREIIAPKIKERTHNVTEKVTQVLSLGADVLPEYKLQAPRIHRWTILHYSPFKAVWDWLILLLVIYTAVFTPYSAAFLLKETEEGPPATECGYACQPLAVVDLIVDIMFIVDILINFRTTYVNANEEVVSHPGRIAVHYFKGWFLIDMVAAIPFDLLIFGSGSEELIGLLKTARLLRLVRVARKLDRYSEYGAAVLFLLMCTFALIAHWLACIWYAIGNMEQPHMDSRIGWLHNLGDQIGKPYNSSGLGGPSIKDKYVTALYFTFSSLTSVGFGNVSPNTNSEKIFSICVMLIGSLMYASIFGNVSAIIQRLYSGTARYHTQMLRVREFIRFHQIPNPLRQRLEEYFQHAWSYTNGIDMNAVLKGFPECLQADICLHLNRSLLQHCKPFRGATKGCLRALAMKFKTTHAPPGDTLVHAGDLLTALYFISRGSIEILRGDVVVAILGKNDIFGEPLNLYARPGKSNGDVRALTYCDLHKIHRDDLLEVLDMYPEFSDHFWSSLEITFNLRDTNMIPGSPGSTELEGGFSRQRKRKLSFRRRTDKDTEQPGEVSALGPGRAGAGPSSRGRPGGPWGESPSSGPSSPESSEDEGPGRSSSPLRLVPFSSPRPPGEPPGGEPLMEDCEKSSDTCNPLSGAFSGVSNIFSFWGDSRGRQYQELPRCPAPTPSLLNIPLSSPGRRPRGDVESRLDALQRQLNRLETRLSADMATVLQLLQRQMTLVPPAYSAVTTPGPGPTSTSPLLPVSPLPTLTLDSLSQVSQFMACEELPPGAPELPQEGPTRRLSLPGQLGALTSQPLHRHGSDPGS
row,SMILES,"hERG current change (%, negative = inhibition) at 10uM"
1,CCCCn1c(N)c(N(CC(C)C)C(=O)CCNC(=O)c2ccc(Cl)cc2)c(=O)[nH]c1=O,-6.38%
2,COc1cc(Cl)ccc1OCc1cc(C(=O)N2CCN(c3ccccn3)CC2)no1,-20.3%
3,COc1ccc(/C=C2/S/C(=N/N=C3\CC4CCC3(C)C4(C)C)NC2=O)cc1 (stereo not drawn),15.6%
4,Cc1nn(-c2ccccc2)c(C)c1NC(=O)COC(=O)CCc1ccccc1,-10.2%
5,CCC(=O)Nc1ccc(C(=O)n2nc(C)cc2C)cc1,-0.911%
6,Cc1cc(NCCCN2CCOCC2)n2nc(C)c(-c3ccccc3)c2n1,-14.6%
7,Cc1ccc(C(=O)Nc2cccc(C(=O)N3CCN(C)CC3)c2)cc1,-4.65%
8,O=C(OC(C(=O)NCc1cccs1)c1ccccc1F)c1ccco1 (stereo not drawn),20.5%
9,CCOc1ccc(NC(=O)CN(C)C(=O)CCCc2c[nH]c3ccccc23)cc1OCC,-3.25%
10,O=C(O)c1ccc(CSc2nnnn2-c2ccc(F)cc2)cc1,-9.84%
11,CCN(CC(=O)Nc1cccc(S(=O)(=O)N(C)c2ccccc2)c1)Cc1cccs1,-29.1%
12,Cc1cccc2[nH]c3c(N4CC=C(c5ccc(F)cc5)CC4)ncnc3c12,3.01%
13,COC(=O)c1cc(COc2ccc3oc(C)c(C(=O)OC(C)C)c3c2)c(C)o1,15.6%
14,O=C(Nc1ccc(N2CCN(C(=O)c3ccccc3)CC2)c(Cl)c1)c1ccc(Br)o1,-58.2%
15,Cc1c(Br)c([N+](=O)[O-])nn1CC(=O)Nc1cccc2nonc12,28.3%
16,CN1CCN(c2nc3c(c(=O)n(C)c(=O)n3C)n2CC(=O)C23CC4CC(CC(C4)C2)C3)CC1,-20.8%
17,COc1ccc(C(=O)N2C(=O)c3ccc(N)cc3C2=O)cc1,3.41%
18,CCCCCCCCCCNC(=O)C(=O)Nc1ccccn1,17.9%
19,COc1ccc(N2CC(O)=C(c3nc(-c4ccc(Br)cc4)cs3)C2=N)cc1,33.3%
20,O=C(NCCc1nc2ccccc2[nH]1)/C(=C/c1ccc2c(c1)OCO2)NC(=O)c1ccccc1Cl,-80.6%
21,CCC1(CC)C(=O)NC(=O)NC1=NCCc1c[nH]c2ccccc12,19.1%
22,Cc1ccccc1Nc1c(-c2ccncc2)nc2ccc(Cl)cn12,-6.83%

row,SMILES,"hERG current change (%, negative = inhibition) at 10uM"
1,c1ccc2c(c1)CC1(CCCC1)n1nnnc1-2,-19.4%
2,CCOc1ccc(C2CC(=O)NC3=C2C(=O)CCC3)cc1Cl (stereo not drawn),-19.3%
3,CC(NC(=O)C1CC1)C(c1cccs1)N1CCOCC1 (stereo not drawn),-0.309%
4,COc1ccc([C@@H]2Sc3ccccc3NC(=O)[C@@H]2O)cc1,2.98%
5,Cc1cc(C(=O)COC(=O)C2CC2)c(C)n1-c1ccc(F)cc1,1.28%
6,COc1ccc(C(C[N+](=O)[O-])c2c(C)cc3ccccn23)c(OC)c1 (stereo not drawn),26.6%
7,O=C(O)CCC(NC(=S)Nc1ccccc1)C(=O)O (stereo not drawn),12.8%
8,CCn1nc(C(=O)OCC(=O)N(CCC#N)c2ccccc2)c2ccccc2c1=O,-30.2%
9,CC1CCCN(CCOCCSc2ccccc2)C1.O=C(O)C(=O)O (stereo not drawn),-34.5%
10,CCCCOc1cccc(C(=O)Nc2ccc(NC(=O)c3cccs3)cc2)c1,21.3%
11,CC(=O)NCCc1nc2cc(NC(=O)COc3ccc(C)cc3)ccc2n1C,14.2%
12,O=C(O)CCC(=O)OC1CC2CCC1C2 (stereo not drawn),1.25%
13,Cc1ccc(C)c2c1[nH]c1ccc([N+](=O)[O-])cc12,10.4%
14,COc1ccc(NC(=O)C=C(C)C)cc1Cl,-1.62%
15,Cc1ccc(C(=O)O/N=C(\N)Cc2cccs2)cc1[N+](=O)[O-],1.11%
16,CCCCn1c(O)c(C=NCCCN(CC)CC)c(=O)[nH]c1=O,-8.91%
17,N#CC1=C(SCC(=O)NC23CC4CC(CC(C4)C2)C3)NC(=O)C(C#N)C12CCCCC2 (stereo not drawn),1.3%
18,Cc1ccc([N+](=O)[O-])cc1S(=O)(=O)Nc1ccc(O)c(Sc2ncn[nH]2)c1,14.7%
19,Cc1cc(C)cc(NS(=O)(=O)c2ccc3c(c2)c(=O)n(C)c(=O)n3C)c1,-17.3%
20,Cc1ccc(C(=O)Nc2c3c(nn2-c2ccccc2)CS(=O)(=O)C3)cc1C,5.15%
21,CC(=O)c1cccc(NC(=O)N2CCCC2C(=O)NCCC(C)C)c1 (stereo not drawn),11.6%
22,O=C(Nc1nc(-c2cc(F)ccc2F)cs1)C1=COCCO1,-1.01%

row,SMILES,"hERG current change (%, negative = inhibition) at 10uM"
1,O=C(NCc1ccccc1Br)c1ccncc1,29.5%
2,O=C(Cc1ccc([N+](=O)[O-])cc1)NCC1CCCO1 (stereo not drawn),1.56%
3,CCC(C)Sc1nc2c(c(=O)[nH]c(=O)n2C)n1CC(O)COc1cccc2ccccc12 (stereo not drawn),12.7%
4,c1csc(-c2nc3nc4ccccc4nc3n2Cc2ccc3c(c2)OCO3)c1,13.8%
5,Cc1cc(C=C2C(=O)NC(=O)NC2=O)c(C)n1-c1ccc2c(c1)OCO2,2.97%
6,Cc1ccc(OCc2nnc(SCC(=O)CC(=O)Nc3ccccc3)o2)cc1,10.2%
7,COCCCNC(=O)c1cc2cc3cc(OC)ccc3nc2o1,-12.9%
8,CCS(=O)(=O)n1nc(-c2ccccc2)cc1N,7.55%
9,CN(/N=C/c1cc([N+](=O)[O-])ccc1O)c1ccccc1,15.9%
10,COc1ccc(-n2c(-c3ccco3)n[nH]c2=S)cc1,14.3%
11,CC(N=C1NS(=O)(=O)c2ccccc21)C(=O)NCCCc1ccccc1 (stereo not drawn),15.9%
12,Cc1nc(NC(=O)c2ccncc2)sc1C(=O)N(C)C,25.3%
13,CCN(c1ccc2c(c1)OCO2)S(=O)(=O)c1cc(Br)cc2c1N(C(C)=O)CC2,-11.1%
14,CCNC(=O)n1nccc1C(C)Oc1cccc(C(F)(F)F)c1 (stereo not drawn),-21.5%
15,CC1(C)CC(=O)c2cnc(NC3CC3)nc2C1,6.22%
16,CCOc1ccc(NS(=O)(=O)c2ccc(Cl)c(C(=O)N(C)Cc3cccnc3)c2)cc1,-25.9%
17,CC(C)CC(=O)NS(=O)(=O)c1ccc(NC(=O)c2ccco2)cc1,25.8%
18,NS(=O)(=O)c1cccc2c1c([N+](=O)[O-])cc1nc([O-])c([O-])nc12.[Na+],29.6%
19,CCCOc1ncnc2c1[nH]c1ccc(C)cc12,16.4%
20,C/C(=N\NC(=O)c1ccccc1)c1ccccc1Br,31.6%
21,COC(=O)c1cccc(NC(=O)Cc2coc3cc(OC)ccc23)c1,1.64%
22,CC(=O)N1CCc2cc(S(=O)(=O)NCCC(=O)Nc3cccc(C)c3)ccc21,-2.86%

row,SMILES,"hERG current change (%, negative = inhibition) at 10uM"
1,NS(=O)(=O)c1cccc(NC(=O)COC(=O)C2CCN(S(=O)(=O)c3cccs3)CC2)c1,-1.16%
2,O=C(O)Cc1csc(NC(=O)CSc2cccc(C(=O)O)n2)n1,16.9%
3,COc1cc(C(NC=O)C(=O)Nc2c(C)cccc2C)ccc1O (stereo not drawn),15.1%
4,COc1ccccc1NC(=O)c1ccc(NC(=O)C2COc3ccccc3O2)cc1 (stereo not drawn),-0.129%
5,CC1=C(C(=O)OCc2ccc3c(c2)OCO3)C(c2cccc([N+](=O)[O-])c2)NC(=O)N1 (stereo not drawn),15.9%
6,O=C(Nc1cccnc1Cl)c1ccc(Cl)c([N+](=O)[O-])c1,-3.09%
7,O=C(c1ccccc1)N1C(=O)C(c2ccccc2)Oc2ccccc21 (stereo not drawn),9.32%
8,O=C1/C(=C\c2ccco2)SC(=S)N1C1CCS(=O)(=O)C1 (stereo not drawn),6.62%
9,CCC(C)N(C(=O)CSc1ccc(NC(C)=O)cc1)C1CCS(=O)(=O)C1 (stereo not drawn),47.5%
10,CC1C=CCC2C(=O)N(c3ccccc3OC(=O)c3cccs3)C(=O)C12 (stereo not drawn),24.4%
11,CC(=O)Nc1ccc(S(=O)(=O)Oc2cccc(/C=N/N=C3/NC(=O)C(CC(=O)O)S3)c2)cc1 (stereo not drawn),20.9%
12,CC1=CN2C(=N)/C(=C/c3ccc(Sc4ccc(Cl)cc4)o3)C(=O)N=C2S1,2.57%
13,O=c1[nH]c(NCCO)nc2c1C1(CCCCC1)Cc1ccccc1-2,7.03%
14,O=C(CCCc1ccccc1)Nc1ccnn1C1CCN(Cc2ccc(Cl)cc2)CC1,-74.8%
15,Cc1ccc(/C(N)=N/OC(=O)COc2ccc(Cl)c(C)c2)cc1,10.4%
16,Nc1nc(CSc2nc3ccccc3s2)nc(N2CCOCC2)n1,5.71%
17,Cc1nc2ccccc2c(=O)n1/N=C/c1cc(Br)ccc1O,28.4%
18,O=C(Cn1cnc([N+](=O)[O-])n1)N/N=C/c1ccccc1O,14.4%
19,O=C(C1CCCCN1S(=O)(=O)c1ccccc1[N+](=O)[O-])N1CCCCC1 (stereo not drawn),19.9%
20,Cc1nn(C)cc1/C=N/NC(=O)C1(O)c2ccccc2-c2ccccc21,0.708%
21,CCc1cccc(C)c1NC(=O)CCNC(=O)c1cccc(C)c1,12.6%
